Our source for the inhibition values is PubChem BioAssay AID485344 (National Center for Advancing Translational Sciences (NCATS), 2010).

The whole screen tested about 340,000 compounds, of which about 6,900 (2%) were called active. Cut-off read from the data, not from the text of the source: active = inhibition above about 30%; inactive = below that, where a call was filed. The list shows a part of the results, in another mix than the full data. Entries without a call were filed so in the source.

A word on the inhibition: it is the change of the read-out against control, counted positive when it falls.

This test addresses D(2) dopamine receptor (Homo sapiens) (UniProt P14416). Kind of test: HTS Assay for Allosteric Antagonists of the Human D2 Dopamine Receptor: Primary Screen for Antagonists. Note: 0% is about no effect. The settings on record: HEK293 TREx D2 cells, calcium flux, dopamine EC80; at 10 µM; stronger effect = higher value. An outline of the steps: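 Measurement of antagonist activity uses fluorescent calcium dye in inducible HEK293 T-REx D2 cells: 10 s baseline, compound addition with 180 s read, EC80 dopamine addition with a further 180 s read.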
Sequence of UniProt P14416 (P14416 whole entry, looked up): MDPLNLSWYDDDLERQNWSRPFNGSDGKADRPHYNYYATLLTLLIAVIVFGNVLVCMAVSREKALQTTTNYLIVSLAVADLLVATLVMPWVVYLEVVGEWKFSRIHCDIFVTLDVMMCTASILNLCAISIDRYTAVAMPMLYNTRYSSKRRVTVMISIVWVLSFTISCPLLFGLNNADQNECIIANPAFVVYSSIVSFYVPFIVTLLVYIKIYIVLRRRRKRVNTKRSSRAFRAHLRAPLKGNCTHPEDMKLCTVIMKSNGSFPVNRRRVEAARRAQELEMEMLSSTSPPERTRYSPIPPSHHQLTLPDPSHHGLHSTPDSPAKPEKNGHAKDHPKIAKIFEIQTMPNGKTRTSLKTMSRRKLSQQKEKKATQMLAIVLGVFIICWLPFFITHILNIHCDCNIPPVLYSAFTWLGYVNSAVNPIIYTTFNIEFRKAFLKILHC
For orientation: A change in cytosolic calcium serves as a functional read-out for many receptors and channels.
For `CCOc1ccccc1NC(=O)C1CCC(CNS(=O)(=O)c2ccc3c(c2)CCCC(=O)N3)CC1` (configuration not stated), the inhibition is 0.663%. Consider `Cc1cccc(N2CCN(C(c3ccccc3)c3nnc(-c4ccccc4F)o3)CC2)c1C` (configuration not stated), for which the inhibition is 19.4%. The result for `Fc1ccc(Nc2nc(SCc3ccccc3Cl)nc3ccccc23)cc1` reads 14.6%; that for `Cc1cc(C)cc(NC(=O)C2CCCN(S(=O)(=O)c3cccc4nsnc34)C2)c1` (configuration not stated), -0.281%. On to `NC(=O)C1CCN(C(=O)c2ccc3c(c2)N(Cc2cccc(Cl)c2)C(=O)c2ccccc2S3=O)CC1` (configuration not stated), for which the inhibition is -8.37%. The result for `Cc1csc2nc(COC(=O)CNC(=O)c3ccc(F)cc3)cc(=O)n12` reads -3.16%; that for `COc1cc(OC)c2c(-c3ccccc3)cc(=O)oc2c1C(CC(=O)N1CCN(c2ccccc2)CC1)c1ccc(N(C)C)cc1` (configuration not stated), active: 48%.

Regarding `COc1ccc(CSc2nc3ccncc3n2CC(=O)Nc2cc(C)cc(C)c2)cc1`, the inhibition is -1.63%. The result for `CCOC(=O)c1c(C)[nH]c(C)c1S(=O)(=O)NCC(=O)Nc1ccc(C)cc1C` reads -2.22%; that for `O=C(Cn1c(=O)n(-c2ccc(F)cc2)c(=O)c2sc3ccccc3c21)NC1CCCC1`, -7.36%.

Take `COc1ccc(-n2nc3ccc(NC(=O)c4c(OC)cccc4OC)cc3n2)cc1`: the inhibition is 16.6%. As to `CCc1ccc2oc(C(=O)Nc3ccccc3OC)cc(=O)c2c1`, the inhibition is -28.4%. For `CCc1nc2ccccc2n2c(-c3ccc(C)cc3)c3c(=O)n(C)c(=O)n(C)c3c12`, the inhibition was determined as 1.04%. For `CCc1ccc(C(=O)CC2(O)C(=O)N(CCc3ccccc3)c3ccc(Br)cc32)cc1` (configuration not stated) the value was 0.463%. The result for `CCc1c(C)sc2c1CCN(Cc1cccc(OC)c1)C2c1ccccc1` (configuration not stated) reads -27.2%; that for `CCC1=Nc2cc(C(=O)NCCc3ccc(OC)c(OC)c3)ccc2Sc2ccccc21`, 1.67%. Take `CCCCN(CCCC)CCNC(=O)Cn1nc(CC)n2c(cc3sccc32)c1=O`: the inhibition came out at 4.73%. In the case of `Cc1ccc(CNC(=O)C(NS(=O)(=O)c2cccs2)C(C)C)cc1` (configuration not stated), the inhibition is -25.3%.

Turning to `COc1ccc(CCC(=O)NCc2ccc3c(c2)CCN3C(=O)c2ccc(Cl)cc2)cc1`, the inhibition amounted to 17.2%. For `COC(=O)c1ccc(Cl)cc1NC(=O)Nc1nnc(N(C)C2CCCCC2)s1` the value was 12%; for `Cc1ccc(CSC2=Nc3ccccc3C3=NC(CCC(=O)NC4CCCCC4)C(=O)N23)cc1` (configuration not stated), 10.6%.

`CC(=O)c1cccc(NC(=O)CSc2nc3c(c(=O)[nH]2)CCC3)c1`: the inhibition worked out at 7.31%. For `CCc1ccc(NCc2cc3ccc(OC)cc3n(CC(=O)Nc3ccccc3C)c2=O)cc1` the value was -0.116%. The result for `OC(COCc1ccccc1)CN1CCN(c2ccccc2)CC1` (configuration not stated) reads active: 85.7%.

Consider `CN(c1ccccc1)S(=O)(=O)c1cccc(C(=O)NCc2ccccc2CN2CCCC2)c1`, for which the inhibition is active: 39.3%. The result for `COc1ccc(NC(=O)CSc2nc(-c3cccs3)cc(C(F)(F)F)n2)cc1Cl` reads 12.7%; that for `COc1ccccc1NC(=O)C1=C(C)Nc2c(C(=O)Nc3ccc(C)cc3)cnn2C1c1cccc(OC)c1OC` (configuration not stated), 4.38%.

Consider `Cc1ccccc1NC(=O)c1cc2c(-c3ccccc3)nn(-c3ccccc3)c2s1`, for which the inhibition was -2.17%. Turning to `COc1ccc(N(Cc2ccccc2)C(=O)c2nc(S(C)(=O)=O)ncc2Cl)cc1`, the inhibition was found to be 2.76%. For `Cc1cccc(N2CCN(C(=O)Cn3nc(C)c4sc5ccccc5c4c3=O)CC2)c1C`, the inhibition worked out at 6.44%. The result for `COc1cccc(C(=O)Nc2ccc(-n3nncc3-c3ccccc3)cc2)c1OC` reads -5.97%. On to `CCCSCCCNC(=O)C1CCN(C(=O)c2cnn(-c3ccccc3)c2-n2cccc2)CC1`, for which the inhibition is 1.08%. As for `COc1ccc(CNC(=O)Cn2c(=O)nc(-c3ccccc3)c3cc(Cl)ccc32)cc1OC`, the inhibition was determined as 16.5%.

As to `CCOc1ccc(C2=NC(c3ccncc3)=Nc3ccc(C)cc3N2)cc1OCC`, the inhibition is -10.4%.

Consider `O=C(CCNC(=O)C1CCN(S(=O)(=O)c2ccc(F)cc2)CC1)NCc1ccc(F)cc1`, for which the inhibition was active: 32.7%. For `COCc1cc(C)nc2sc(C(=O)Nc3ccccc3O)c(N)c12` the value was 13.3%.

Consider `COc1ccc(C2CC(=O)c3c([nH]c(C(=O)OCc4ccccc4)c3C)C2)cc1` (configuration not stated), for which the inhibition is 9.94%. The result for `Cc1ccc(OCCn2cc(C(=O)c3cccs3)c3ccccc32)cc1` reads 6.84%; that for `CSc1nn(CC(=O)Nc2ccccc2F)c(N)c1S(=O)(=O)c1ccccc1`, -3.52%.

Take `COc1ccc(CNC(=O)Cc2c(C)c3cc4c(C)coc4cc3oc2=O)cc1`: the inhibition is 10.1%. As for `Cc1nc2c(C(=O)NCCC(C)C)c[nH]n2c(=O)c1Cc1ccccc1F`, the inhibition is active: 37.1%. The result for `COCCCNC(=O)Cn1c(=O)n(-c2cccc(C)c2)c(=O)c2c1c1cc(C)ccc1n2C` reads -21.2%; that for `CCc1ccc(NC(=O)CCc2c(C)nc3nc(-c4cc(OC)cc(OC)c4)nn3c2C)cc1`, 26.6%. The result for `Cc1ccc(N2CCn3c2nc2c3c(=O)n(C/C=C/c3ccccc3)c(=O)n2C)cc1C` reads -21.8%; that for `COc1ccc(-c2noc(CCCC(=O)Nc3cccc(Cl)c3C)n2)cc1`, -9.91%; that for `Cc1ccc(CN2CCSc3ccc(C(=O)NCc4ccc(OC(C)C)cc4)cc32)cc1`, 12.9%. For `COc1ccc(S(=O)(=O)N2CCC(N3CCN(Cc4ccccc4)C(=O)C3=O)CC2)cc1` the value was 3.1%; for `CCn1c2ccccc2c2nnc(N3CCN(c4cccc(Cl)c4)CC3)nc21`, -16.4%. `CCOC(=O)c1c(C)[nH]c(CCC(=O)NCc2ccc(OC)c(OC)c2)c1C`: the inhibition is -23.2%.

With `O=C(O)COc1ccc2c3c(c(=O)oc2c1)CCC3`, the inhibition is active: 38.8%. The result for `C#CC(C)(CC)NC(=O)Cn1nnc(-c2ccc(OCc3ccccc3C)cc2)n1` (configuration not stated) reads -11.6%; that for `Cc1cccc(-c2nn3c(=O)cc(CN4CCN(C(=O)c5ccccc5Br)CC4)nc3s2)c1`, 3.59%. For `COc1ccccc1N1CCN(C(=O)c2cnn(-c3cccc(Cl)c3)c2C2CCN(C(=O)OC(C)(C)C)CC2)CC1` the value was 6.89%. The result for `CCCn1c2ccccc2c2cnn(CC(=O)NCC3CCN(Cc4ccc(F)cc4)CC3)c(=O)c21` reads -8.59%; that for `CCc1ccccc1NC(=O)c1cc(S(=O)(=O)N2CCc3ccccc32)ccc1F`, 17.8%. Consider `COc1ccccc1CNc1nc(-c2ccco2)nn1C(=O)c1cc(OC)c(OC)c(OC)c1`, for which the inhibition is -11.5%. For `Cc1ccccc1CNC(=O)C1=Cc2ccccc2OC1` the value was 9.33%; for `O=C(Nc1cccc(C(F)(F)F)c1)C1CC(=O)N(CCc2ccccc2)C1` (configuration not stated), active: 62.5%. Take `CCc1nc(SC)ncc1C(=O)N1CCN(c2cc(Cl)ccc2C)CC1`: the inhibition is 3.74%.

Take `CC(NC(=O)C1CCN(S(=O)(=O)c2ccccc2)CC1)c1ccccc1` (configuration not stated): the inhibition was determined as 4.27%. For `Cc1nn(C(C)C(=O)Nc2ccc(C(C)C)cc2)c(=O)c2c1sc1ccccc12` (configuration not stated) the value was 4.41%. For `COc1cc(/C=C(\C#N)c2nc3ccccc3[nH]2)ccc1OCc1ccc(F)cc1` the value was -4.08%; for `COc1cc(-c2nc(SCC(=O)Nc3ccc(C)cc3)c(-c3ccc(F)cc3)[nH]2)cc(OC)c1OC`, -4.29%; for `CCCN(CCC)CCCNC(=O)c1cnn(-c2ccc(F)cc2)c1-n1cccc1`, -10.6%. The result for `CCCCn1c(=N)c(S(=O)(=O)c2ccc(C)cc2)cc2c(=O)n3cc(C)ccc3nc21` reads -1.85%; that for `O=C(Nc1ccc(-c2nc3cc(NC(=O)c4ccc(F)cc4)ccc3o2)cc1)c1ccc(F)cc1`, -9.9%; that for `CCc1nn2c(=O)cc(COC(=O)c3ccc(NC(=O)CCc4ccccc4)cc3)nc2s1`, 1.54%.

Consider `O=C(COc1ccccc1)N(Cc1cccnc1)c1nc2c(F)cccc2s1`, for which the inhibition is 11.1%. The result for `Nc1ccc(NC(=O)c2cccc(C(=O)Nc3ccc(N)cc3Cl)c2)c(Cl)c1` reads 0.393%. For `Cc1ccc(-c2nnc(Nc3ccc(OC(F)(F)Cl)cc3)c3ccccc23)cc1S(=O)(=O)NC(C)(C)CO` the value was 11.1%. For `CC(=O)N1CCc2c(sc3nc(SCC(C)C)n(-c4ccc(C)c(Cl)c4)c(=O)c23)C1` the value was 4.57%. Turning to `Cc1nc2scc(C)n2c(=O)c1S(=O)(=O)Nc1ccc(N2CCN(S(C)(=O)=O)CC2)cc1`, the inhibition is -5.64%. For the compound `O=C(CN1C(=O)COc2ccc(S(=O)(=O)N3CCCCCC3)cc21)Nc1cccc(Cl)c1`, the inhibition was 0.298%.

Take `COc1ccc(S(=O)(=O)N2CCC(NC(=O)OCc3c(Cl)cccc3Cl)CC2)cc1`: the inhibition is active: 34.6%. For `COc1ccc(-c2cc(C(=O)Oc3ccc(C)cc3)c3cc(C)ccc3n2)cc1` the value was -4.94%. The result for `Cc1cc(=O)n(C(C)C(=O)N2CCCc3ccccc32)c2c1c(C)nn2-c1ccccc1` (configuration not stated) reads 17.9%; that for `CC1CCN(c2nn3c(=O)c(C(=O)NCCc4ccccc4)cnc3s2)CC1`, -9.16%; that for `CC(/C=N/NC(=O)c1cccc(F)c1)=C\c1ccccc1`, active: 33.4%. The result for `Cc1ccc2[nH]cc(S(=O)(=O)c3ccc(C)c(C)c3)c(=O)c2c1` reads -17.8%; that for `CCCCCCN(C(=O)CCCCCN1C(=O)NC(c2ccc(-c3ccccc3)cc2)C(C(=O)OCc2ccccc2)=C1C)C(C(=O)NCCCC)c1ccccn1` (configuration not stated), active: 31%. As to `Cc1ccc(F)cc1NC(=O)CCc1c(C)nn(-c2ccc(N3CCOCC3)nn2)c1C`, the inhibition was determined as 9.53%. For `Cc1ccccc1S(=O)(=O)N(CC(O)CN1CCCCC1)c1ccccc1` (configuration not stated) the value was active: 53.7%; for `CC1Cn2c(C(=O)NCCc3ccc(Cl)cc3)cc3cccc(c32)S1` (configuration not stated), 1.78%; for `Cc1c(C(=O)N2CCCC2)oc2c1-c1nn(CC(=O)NCc3ccccc3Br)cc1CC2`, -12.1%. Turning to `Cc1ccc(/C=C/c2onc(C)c2S(=O)(=O)N2CCC(C(=O)N3CCOc4ccc(C)cc43)CC2)cc1`, the inhibition was -19.3%. For `COc1ccc(C)cc1NC(=O)CCc1c(C)nn(-c2ccc(N3CCCCC3)nn2)c1C` the value was 9.59%; for `COc1ccc(NC(=O)CCS(=O)(=O)c2nc(-c3ccc4c(c3)OCO4)cc(C(F)(F)F)n2)cc1`, -10.4%; for `CSc1ccc(C2CC(=O)Oc3c2c(=O)n(C)c2ccccc32)cc1` (configuration not stated), -21.8%.

On to `COc1ccccc1CNC(=O)C(C)n1ccc2cc(S(=O)(=O)N3CCCC3)ccc21` (configuration not stated), for which the inhibition came out at 0.891%. With `COc1ccc(CNC(=O)c2ccc3nc(CCc4ccccc4)oc3c2)cc1`, the inhibition is 12.2%.

Consider `Cc1ccc(NC(=O)C2CCN(S(=O)(=O)c3ccc4c(c3)NC(=O)CO4)CC2)cc1`, for which the inhibition is active: 32%. Regarding `O=S(=O)(NCC1CCN(Cc2ccccc2)CC1)c1ccccc1C(F)(F)F`, the inhibition is active: 53.9%.
